# Laboratory results published in PubChem BioAssay AID1794842 (National Center for Advancing Translational Sciences (NCATS), 2023).
# Fewer than 10 of roughly 2,800 compounds were called active. Calls follow the shape of the dose curve; as a rule, active = well fitted curve in the direction sought with a large enough effect; inconclusive = small, poorly fitted or top-dose-only effect, or another doubt; inactive = no such curve, though single readings can be large or run the other way. Some of the results follow.
# Biological target: Metallo-beta-lactamase type 2 (Klebsiella pneumoniae) (UniProt C7C422)
# Assay: qHTS to identify inhibitors of the New Delhi Metallo-beta-lactamase (NDM): Meropenem screen against the machine-based learning selections. Also: % of control where 0% means no effect.
# Details: Purified NDM-1, meropenem hydrolysis, absorbance 300 nm; at 38.4 µM (top of the series) unless noted
# In short: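 Hydrolysis by 2 nM NDM-1 was followed by absorbance after >30 min compound preincubation in HEPES pH 7.0 buffer with 1 uM Zn2SO4. For nitrocefin (16.7 uM, 15 min, 485 nm) and meropenem (50 uM, 30 min, 300 nm), each substrate ran on separate plates.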
# Chain of UniProt C7C422 (C7C422 whole entry, looked up): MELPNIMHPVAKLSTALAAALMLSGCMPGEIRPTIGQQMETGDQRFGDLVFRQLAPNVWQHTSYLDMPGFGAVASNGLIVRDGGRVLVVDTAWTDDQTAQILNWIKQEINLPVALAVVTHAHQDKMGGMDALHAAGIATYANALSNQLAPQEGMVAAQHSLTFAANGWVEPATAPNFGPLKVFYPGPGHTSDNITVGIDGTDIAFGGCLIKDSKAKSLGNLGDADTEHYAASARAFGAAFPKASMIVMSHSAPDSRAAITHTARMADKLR
row,Compound,"activity change, negative = inhibition"
1,O=C1N[C@@H]2CCN(S(=O)(=O)c3ccccc3)[C@@H]2C(=O)N1c1ccc(F)cc1,inactive: 1.24% [at 57.5 µM]
2,Cc1ccc(CN2CC[C@@H]3[C@H]2C(=O)NC[C@H](CCC(=O)N2CCCC2)N3C)cc1,inactive: 9.64% [at 57.5 µM]
3,CC(=O)N[C@H]1C[C@@H](c2cnc3ccccc3c2)O[C@@H](C2CCCCC2)C1,inactive: 1.55%
4,Cc1ccc(S(=O)(=O)NC[C@H]2OC[C@@H](NCC(C)(C)C)[C@@H]2O)cc1,inactive: -0.0117% [at 57.5 µM]
5,COCC(=O)N1CC2(Cc3ccccc3N(C(C)=O)C2)C1,inactive: 0.591% [at 57.5 µM]
6,CN1[C@@H](CCC(=O)N2CCc3ccccc32)CNC(=O)[C@@H]2[C@H]1CCN2Cc1ccc(O)cc1,inactive: 1.1%
7,COCC[C@]1(O)CCN(C(=O)c2cccc(OC)c2C)C[C@H]1C,inactive: 0%
8,Cn1ccc2c(C(=O)NCc3cccnc3)nc(-c3ccc(CO)cc3)cc21,inactive: 0.607% [at 57.5 µM]
9,C[C@]1(O)CCN(C(=O)c2cnn3cc(CCO)cnc23)C[C@@H]1O,inactive: -2.74%
10,O=C(c1ccc(Cn2cnnn2)cc1)N1CCC2(CC1)[C@H](O)C[C@@H]2OCCO,inactive: 1.04%
11,CCCCCC(=O)N1CC[C@@H](CC(=O)NCc2cccs2)[C@@H](CC)C1,inactive: 2.79% [at 57.5 µM]
12,COc1ccc(S(=O)(=O)NC[C@H]2COCc3nc4c(C)cccc4n32)cc1,inactive: 1.7% [at 57.5 µM]
13,Cc1cn2c(=O)cc(CN3CC(=O)N(C)c4ccccc4C3=O)nc2s1,inactive: -1.51%
14,CC(C)(O)CCc1cccc(C(=O)NC2CCN(c3ncccc3C#N)CC2)c1,inactive: -3.17%
15,CC1(C)[C@H](Cc2cc(CC3CCCCC3)on2)C[C@@H]1NC(=O)c1ccccc1,inactive: 2.19% [at 57.5 µM]
16,O=C(Nc1ccc([C@@H](O)[C@H]2COCC(=O)N2Cc2ccc(F)cc2)cc1)c1ccccc1,inactive: 2.6% [at 57.5 µM]
17,CN(C)C(C(=O)N1CCN(c2ncccc2C#N)CC1)c1cccc(F)c1 (stereo not drawn),inactive: 2.61%
18,CNc1cccnc1OC1CCN(S(=O)(=O)c2ccc3c(c2)CCC3)C1 (stereo not drawn),inactive: 0.362%
19,CCc1n[nH]c(CC2CCN(C(=O)COc3ccc(F)cc3)CC2)n1,inactive: 0.561%

row,Compound,"activity change, negative = inhibition"
1,COC(=O)c1ccc2c(c1)nc1n2[C@@H](CNC(=O)NC2CCCCC2)COC1,inactive: -0.992% [at 57.5 µM]
2,COc1ccc2[nH]c(C(=O)N3CCn4nc(CO)cc4C3)c(C)c2c1,inactive: 9.12%
3,c1ccc(Nc2cc3c(cn2)NCCN(Cc2ccccn2)C3)cc1,inactive: 16.8% [at 57.5 µM]
4,Cc1ccc(CN2CC[C@H](c3nc4cc(C)ccc4o3)C2)cc1,inactive: -0.245% [at 57.5 µM]
5,CC[C@@H](NC(=O)c1cc(S(N)(=O)=O)ccc1C)C1CC(O)C1 (stereo partly drawn),inactive: 0.0363%
6,CC1(C(=O)NCc2ccncc2)CCc2cnc(NCc3ccccc3)nc21 (stereo not drawn),inactive: 0.467% [at 57.5 µM]
7,O=C(O)Cn1ccc2cc(OCc3cccc(-c4ccncc4)c3)cnc21,inactive: 19.6% [at 57.5 µM]
8,COc1cccc(-c2cc(C(=O)O)cc(S(=O)(=O)N3CCSCC3)c2)c1,inactive: -0.198%
9,O=C1N(Cc2ccccn2)C[C@H]2CN(Cc3cccc(OC(F)(F)F)c3)CCN12,inactive: 0.412% [at 57.5 µM]
10,CNC(=O)c1cccc(-c2cnc(Nc3cccnc3)c3c2CCO3)c1,inactive: 0.548% [at 57.5 µM]
11,CN1C[C@@H](F)[C@@H](OCc2nc3ccc(C(F)(F)F)cc3[nH]2)C1,inactive: 2.24% [at 57.5 µM]
12,C[C@@H](c1ccccc1)N1C(=O)[C@@H]2CN(C(=O)c3ccco3)CCN2C1=O,inactive: 3.75% [at 57.5 µM]
13,CC(C)c1nc2c(c(-c3ccc(O)cc3)n1)CN(C(=O)N(C)C)CC2,inactive: 3.85%
14,COc1ncccc1-c1cnc2[nH]cc(CC(=O)Nc3cccnc3)c2c1,inactive: 0.35% [at 57.5 µM]
15,O=C(CCC[C@H]1NC[C@@H]2CC1CN(Cc1ccccc1)C2)N1CCOCC1,inactive: 56.3%
16,C[C@H](O)c1c(-c2ccc(Cl)cc2)noc1C(=O)N(C)C,inactive: 0.62% [at 57.5 µM]
17,COc1ccc(C(=O)N2CC[C@@H](CC(=O)O)[C@@H](CCN3CCCCC3)C2)cc1,inactive: 3.07% [at 57.5 µM]
18,COc1cccc(-c2ccccc2NC(=O)C2CCN(Cc3cc(F)ccc3F)CC2)c1,inactive: 0.222%
19,Cc1nc2c(c(=O)[nH]1)CCN(C(=O)C1(C)CCc3c(C)c(O)c(C)c(C)c3O1)C2 (stereo not drawn),inactive: -0.427%
